According to PubChem BioAssay AID1745853 (National Center for Advancing Translational Sciences (NCATS), 2022):
The other results are listed elsewhere or left out. These are further read-outs of the screen, such as a control signal, another cell line or another target. No call is given for them.

Legend:
Assay in all cases: Primary Screen for Target Class Profiling of Small Molecule Inhibitors of Methyltransferases
[1] = target: Glycine N-methyltransferase (Homo sapiens) (UniProt Q14749); details: purified enzyme, MTase-Glo SAH luminescence; measured here: GNMT inhibition; at 40 µM; stronger effect = lower value
Outline: (§1)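 Each enzyme was assayed with SAM and its substrate. SAH formation detected by MTase-Glo luminescence; single-point 40 uM screen[…].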

[2] = target: Guanidinoacetate N-methyltransferase (Homo sapiens) (UniProt Q14353); details: purified enzyme, MTase-Glo SAH luminescence; measured here: GAMT inhibition; at 40 µM; stronger effect = lower value
Outline: as §1

[3] = target: Histamine N-methyltransferase (Homo sapiens) (UniProt P50135); details: purified enzyme, MTase-Glo SAH luminescence; measured here: HNMT inhibition; at 40 µM; stronger effect = lower value
Outline: as §1

[4] = target: Nicotinamide N-methyltransferase (Homo sapiens) (UniProt P40261); details: purified enzyme, MTase-Glo SAH luminescence; measured here: NNMT inhibition; at 40 µM; stronger effect = lower value
Outline: as §1

[5] = target: Phenylethanolamine N-methyltransferase (Homo sapiens) (UniProt P11086); details: purified enzyme, MTase-Glo SAH luminescence; measured here: PNMT inhibition; at 40 µM; stronger effect = lower value
Outline: as §1
On the % scale 0 is the no-effect control and ±100 the full control effect.

Structure (SMILES): N#Cc1ccc(-n2nc(C3CCOCC3)nc2C2(C(N)=O)CC2)cc1
- activity change, negative = inhibition [1]: -1.13%
- activity change, negative = inhibition [2]: 2.32%
- activity change, negative = inhibition [3]: 2.27%
- activity change, negative = inhibition [4]: -0.478%
- activity change, negative = inhibition [5]: 15.4%

Structure (SMILES): Cc1ccc(NC(=O)CSc2nnc3n(CC(C)C)c(=O)c4ccccc4n23)c(C)c1
- activity change, negative = inhibition [1]: -1.85%
- activity change, negative = inhibition [2]: 3.45%
- activity change, negative = inhibition [3]: 5.76%
- activity change, negative = inhibition [4]: -4.87%
- activity change, negative = inhibition [5]: 2.28%

Structure (SMILES): CCN1CCN(CCNC(=O)CN2CCCc3nc(C4CC4)ncc3C2=O)CC1
- activity change, negative = inhibition [1]: -3.08%
- activity change, negative = inhibition [2]: -6.13%
- activity change, negative = inhibition [3]: -21.4%
- activity change, negative = inhibition [4]: -6.81%
- activity change, negative = inhibition [5]: -6.47%

Structure (SMILES): CC(C)=CC(=O)N1C[C@@H](NC(=O)NC2CCCCC2)C[C@H]1C(=O)N[C@H](Cc1c[nH]c2ccccc12)C(N)=O
- activity change, negative = inhibition [1]: -6%
- activity change, negative = inhibition [2]: -6.67%
- activity change, negative = inhibition [3]: -1.54%
- activity change, negative = inhibition [4]: -11.5%
- activity change, negative = inhibition [5]: -19.7%

Structure (SMILES): O=S(=O)(c1ccccc1Cl)N1CCC(c2noc(COCc3ccccc3)n2)CC1
- activity change, negative = inhibition [1]: -6.7%
- activity change, negative = inhibition [2]: -8.05%
- activity change, negative = inhibition [3]: -4.51%
- activity change, negative = inhibition [4]: -14.7%
- activity change, negative = inhibition [5]: -15%

Structure (SMILES): CC(=O)O[C@@H]1[C@@H](CO)O[C@@](CO)(O[C@H]2O[C@H](COC(=O)/C=C/c3ccccc3)[C@@H](O)[C@H](O)[C@H]2O)[C@H]1O
- activity change, negative = inhibition [1]: -0.995%
- activity change, negative = inhibition [2]: -3.37%
- activity change, negative = inhibition [3]: -6.41%
- activity change, negative = inhibition [4]: -12.2%
- activity change, negative = inhibition [5]: -0.658%

Structure (SMILES): O=C(NCc1ccc(Cl)s1)C1CCCN(C2CCN(C(=O)C3CC3)CC2)C1 (configuration not stated)
- activity change, negative = inhibition [1]: -8.53%
- activity change, negative = inhibition [2]: -12.1%
- activity change, negative = inhibition [3]: -8.95%
- activity change, negative = inhibition [4]: -14.5%
- activity change, negative = inhibition [5]: -12.7%

Structure (SMILES): CCc1ccccc1NC(=O)CSc1nnc2[nH]c(=O)c(C)nn12
- activity change, negative = inhibition [1]: 13.2%
- activity change, negative = inhibition [2]: 0%
- activity change, negative = inhibition [3]: 9.07%
- activity change, negative = inhibition [4]: 0.558%
- activity change, negative = inhibition [5]: 3.04%

Structure (SMILES): O=C([C@H]1C[C@H](Oc2cccnc2)CN1C(=O)Nc1ccccc1)N1CCOCC1
- activity change, negative = inhibition [1]: -2.27%
- activity change, negative = inhibition [2]: -1.72%
- activity change, negative = inhibition [3]: -0.555%
- activity change, negative = inhibition [4]: -1.12%
- activity change, negative = inhibition [5]: 3.59%

Structure (SMILES): C=CCNC(=O)N[C@H]1C[C@@H](C(=O)N[C@H](Cc2c[nH]c3ccccc23)C(N)=O)N(C(=O)c2cccn2C)C1
- activity change, negative = inhibition [1]: -1.23%
- activity change, negative = inhibition [2]: 2.26%
- activity change, negative = inhibition [3]: -1.33%
- activity change, negative = inhibition [4]: 4.03%
- activity change, negative = inhibition [5]: 4.5%

Structure (SMILES): COC(=O)[C@H](OC(C)=O)[C@H]1C(C)(C)C(=O)[C@H]2CC3=C4CC(=O)O[C@@H](c5ccoc5)[C@]4(C)CCC3[C@@]1(C)C2=O (some centres not stated)
- activity change, negative = inhibition [1]: 2.75%
- activity change, negative = inhibition [2]: -2.26%
- activity change, negative = inhibition [3]: 7.87%
- activity change, negative = inhibition [4]: -12.3%
- activity change, negative = inhibition [5]: 1.49%

Structure (SMILES): CCCn1c(=O)c2ccc(Cl)cc2n2c(=O)n(CC(=O)c3cc(C)ccc3C)nc12
- activity change, negative = inhibition [1]: -3.89%
- activity change, negative = inhibition [2]: -1.74%
- activity change, negative = inhibition [3]: 0.224%
- activity change, negative = inhibition [4]: -2.52%
- activity change, negative = inhibition [5]: -1.42%

Structure (SMILES): Cc1cccc(S(=O)(=O)N2CCCC(Cn3cc(CO)nn3)C2)c1 (configuration not stated)
- activity change, negative = inhibition [1]: -3.35%
- activity change, negative = inhibition [2]: -6.41%
- activity change, negative = inhibition [3]: 1.8%
- activity change, negative = inhibition [4]: -3.01%
- activity change, negative = inhibition [5]: -1.51%

Structure (SMILES): CC1(C(=O)NC2CCCCCCC2)Cc2ccccc2C(=O)N1CCc1ccccc1 (configuration not stated)
- activity change, negative = inhibition [1]: -4.42%
- activity change, negative = inhibition [2]: 0%
- activity change, negative = inhibition [3]: 4.29%
- activity change, negative = inhibition [4]: 3.4%
- activity change, negative = inhibition [5]: -1.57%

Structure (SMILES): COCc1ccccc1-c1cn(C)c(=O)n2cc(COc3ccc(Cl)cc3)nc12
- activity change, negative = inhibition [1]: -4.28%
- activity change, negative = inhibition [2]: -1.97%
- activity change, negative = inhibition [3]: -0.262%
- activity change, negative = inhibition [4]: -4.99%
- activity change, negative = inhibition [5]: -3.28%

Structure (SMILES): O=C(C1CCC(=O)N(C2CCCC2)C1)N1CCN(c2nccs2)CC1 (configuration not stated)
- activity change, negative = inhibition [1]: -1.78%
- activity change, negative = inhibition [2]: -1.31%
- activity change, negative = inhibition [3]: 0.511%
- activity change, negative = inhibition [4]: -8.06%
- activity change, negative = inhibition [5]: -1.52%

Structure (SMILES): O=C(CCc1nnc2n(Cc3ccccc3Cl)c(=O)c3ccccc3n12)N1CCC(N2CCCCC2)CC1
- activity change, negative = inhibition [1]: -3.95%
- activity change, negative = inhibition [2]: 4.8%
- activity change, negative = inhibition [3]: -35.6%
- activity change, negative = inhibition [4]: 11.2%
- activity change, negative = inhibition [5]: 2.26%

Structure (SMILES): COc1ccc2cc3n(c2c1)CC(C)(C(=O)NC1CCCCC1)N(Cc1ccccc1OC)C3=O (configuration not stated)
- activity change, negative = inhibition [1]: 1.53%
- activity change, negative = inhibition [2]: 4.12%
- activity change, negative = inhibition [3]: 5.74%
- activity change, negative = inhibition [4]: -0.084%
- activity change, negative = inhibition [5]: -1.37%

Structure (SMILES): CCCn1c(=O)c2ccc(C(=O)NC(C)C)cc2n2c(SCC(=O)c3ccc(C)cc3)nnc12
- activity change, negative = inhibition [1]: 1.27%
- activity change, negative = inhibition [2]: 3.98%
- activity change, negative = inhibition [3]: -0.963%
- activity change, negative = inhibition [4]: -0.693%
- activity change, negative = inhibition [5]: 1.37%

Structure (SMILES): Cc1cc(C)n(CCC(=O)NCC2CCN(c3cc(-c4ccc(Cl)cc4)[nH]n3)CC2)n1
- activity change, negative = inhibition [1]: -6.61%
- activity change, negative = inhibition [2]: 3.89%
- activity change, negative = inhibition [3]: 1.78%
- activity change, negative = inhibition [4]: -9.19%
- activity change, negative = inhibition [5]: 14.2%

Structure (SMILES): CCOC(=O)C(Cc1c[nH]c2ccccc12)NC(=O)c1ccccc1Cl (configuration not stated)
- activity change, negative = inhibition [1]: -3.08%
- activity change, negative = inhibition [2]: 1.19%
- activity change, negative = inhibition [3]: 1.74%
- activity change, negative = inhibition [4]: 0.412%
- activity change, negative = inhibition [5]: -4.37%

Structure (SMILES): CC1CCCCN1C(=O)Cn1c(=O)oc2cc(S(=O)(=O)N3CCCCC3)ccc21 (configuration not stated)
- activity change, negative = inhibition [1]: 5.01%
- activity change, negative = inhibition [2]: 1.32%
- activity change, negative = inhibition [3]: 8.54%
- activity change, negative = inhibition [4]: 13.2%
- activity change, negative = inhibition [5]: 2.56%

Structure (SMILES): NC(=O)C(CCC(F)(F)F)N(Cc1ccc(-c2ncon2)cc1F)S(=O)(=O)c1ccc(Cl)cc1 (configuration not stated)
- activity change, negative = inhibition [1]: 3.5%
- activity change, negative = inhibition [3]: 3.66%

Structure (SMILES): COc1cccc([S+](=O)([O-])N2CCC3(C2)C(=NC2CCCCC2)NC(=O)N3c2cc(F)cc(F)c2)c1 (configuration not stated)
- activity change, negative = inhibition [1]: -1.44%
- activity change, negative = inhibition [2]: -4.32%
- activity change, negative = inhibition [3]: -2.87%
- activity change, negative = inhibition [4]: -4.01%
- activity change, negative = inhibition [5]: -12.8%

Structure (SMILES): CC(C)Cn1c(=O)c2ccc(C(=O)NC(C)C)cc2n2c(=O)n(CC(=O)NCc3ccccc3)nc12
- activity change, negative = inhibition [1]: 2.36%
- activity change, negative = inhibition [2]: 0%
- activity change, negative = inhibition [3]: 3.16%
- activity change, negative = inhibition [4]: 0.184%
- activity change, negative = inhibition [5]: 2.56%

Structure (SMILES): O=C(NCCN1CCOCC1)c1cc2c(Oc3ccc(NC(=O)C4(C(=O)Nc5ccc(F)cc5)CC4)cc3)ccnc2[nH]1
- activity change, negative = inhibition [1]: -1.92%
- activity change, negative = inhibition [2]: 5.1%
- activity change, negative = inhibition [3]: -6.47%
- activity change, negative = inhibition [4]: -19.9%
- activity change, negative = inhibition [5]: -5.57%

Structure (SMILES): Cc1nccn1CC1CCc2c(c3ccccc3n2C)C1=O (configuration not stated)
- activity change, negative = inhibition [1]: -11.9%
- activity change, negative = inhibition [2]: -26.1%
- activity change, negative = inhibition [3]: 1.42%
- activity change, negative = inhibition [4]: -29.1%
- activity change, negative = inhibition [5]: -5.61%

Structure (SMILES): CN1C(=O)c2cc(C(=O)NCc3ccccc3)nn2CC1(C)C(=O)NC1CCCCC1 (configuration not stated)
- activity change, negative = inhibition [1]: 3.47%
- activity change, negative = inhibition [2]: 4.5%
- activity change, negative = inhibition [3]: 0.79%
- activity change, negative = inhibition [4]: 5.06%
- activity change, negative = inhibition [5]: 2.87%

Structure (SMILES): Cn1cccc1C(=O)N[C@H]1C[C@@H](C(=O)O)N(C(=O)CSCC(=O)N2C[C@@H](NC(=O)c3cccn3C)C[C@H]2C(=O)O)C1
- activity change, negative = inhibition [1]: -7.04%
- activity change, negative = inhibition [2]: -9.38%
- activity change, negative = inhibition [3]: -4.82%
- activity change, negative = inhibition [4]: -12.2%
- activity change, negative = inhibition [5]: 29.8%
